The text below walks through data of PubChem BioAssay (NCI).

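In this assay, cells in 96-well plates receive the compound at five concentrations for 48 hours. Endpoints are linearly interpolated between the surrounding concentrations. Here, GI50 denotes the concentration required for 50% inhibition of growth. Definition used: TGI = concentration required for complete inhibition of growth.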 A value given as a limit tells only on which side of the number the result lay.

The test relates to NCI-H322M lung. Description: NCI-60 cell line screen, 48 h.
Take `Cc1cccc2sc(/N=C(\N)C(Br)Br)nc12`: the GI50 is 3.27 µM and the TGI was determined as 14.2 µM.

Regarding `Fc1ccc(-c2cc3nc(C(Cl)Cl)nc(-c4ccco4)n3n2)cc1`, the GI50 is 0.633 µM and the TGI came to 3.5 µM.

Turning to `CCOC(=O)c1c(NC(=O)c2ccc(C(F)(F)F)cc2)sc2c(CN3CCN(C)CC3)c(O)ccc12`, the GI50 was 1.86 µM and the TGI was determined as 3.82 µM.

`O=C(N/N=C/c1ccc([N+](=O)[O-])o1)c1[nH]c2ccc(Br)cc2c1-c1ccccc1`: the GI50 is 1.36 µM and the TGI was found to be 29.8 µM.

Take `COc1ccc(Cn2cc3c(c2-c2cc(OC)c(OC)c(OC)c2)CCCc2cnoc2-3)cc1`: the GI50 was 3.28 µM and the TGI is > 100 µM.
